The list shows a part of the results.
What was measured:
Test in all cases: glycan array binding signal (z-score within array); higher = stronger binding
Details in all cases: glycan notation: IUPAC condensed, linker removed
[1] = biological target: Neu5Ac(a2-6)Gal(b1-4)GlcNAc(b1-2)[Neu5Ac(a2-6)Gal(b1-4)GlcNAc(b1-4)]Man(a1-3)[GlcNAc(b1-4)][Neu5Ac(a2-6)Gal(b1-4)GlcNAc(b1-4)Man(a1-6)]Man(b1-4)GlcNAc(b1-4)GlcNAc
In short: (§1)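 Glycan array data came from 3228 arrays in the Consortium for Functional Glycomics database, and only arrays with an available protein sequence were kept. Glycan names were put into IUPAC-condensed notation, and columns mapping to the same glycan were averaged. The binding signal is a within-array Z-score, averaged across arrays of one protein sequence run at different concentrations or buffers and across linkers. A negative Z-score can be read as non-binding.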

[2] = biological target: Neu5Ac(a2-6)Gal(b1-4)GlcNAc(b1-2)[Neu5Ac(a2-6)Gal(b1-4)GlcNAc(b1-6)]Man(a1-6)[Neu5Ac(a2-6)Gal(b1-4)GlcNAc(b1-2)Man(a1-3)][GlcNAc(b1-4)]Man(b1-4)GlcNAc(b1-4)GlcNAc
In short: as §1

[3] = biological target: Neu5Ac(a2-6)Gal(b1-4)GlcNAc(b1-3)Gal(b1-3)GlcNAc
In short: as §1

[4] = biological target: Neu5Ac(a2-6)Gal(b1-4)GlcNAc(b1-3)Gal(b1-4)GlcNAc
In short: as §1

[5] = biological target: Neu5Ac(a2-6)Gal(b1-4)GlcNAc(b1-3)Gal(b1-4)GlcNAc(b1-2)Man(a1-3)[Neu5Ac(a2-6)Gal(b1-4)GlcNAc(b1-3)Gal(b1-4)GlcNAc(b1-2)Man(a1-6)]GalNAc
In short: as §1

[6] = biological target: Neu5Ac(a2-6)Gal(b1-4)GlcNAc(b1-3)Gal(b1-4)GlcNAc(b1-3)Gal(b1-4)GlcNAc
In short: as §1

[7] = biological target: Neu5Ac(a2-6)Gal(b1-4)GlcNAc(b1-3)Gal(b1-4)GlcNAc(b1-3)Gal(b1-4)GlcNAc(b1-2)Man(a1-3)[Neu5Ac(a2-6)Gal(b1-4)GlcNAc(b1-3)Gal(b1-4)GlcNAc(b1-3)Gal(b1-4)GlcNAc(b1-2)Man(a1-6)]GalNAc
In short: as §1

[8] = biological target: Neu5Ac(a2-6)Gal(b1-4)GlcNAc(b1-3)Gal(b1-4)GlcNAc(b1-3)GalNAc
In short: as §1

[9] = biological target: Neu5Ac(a2-6)Gal(b1-4)GlcNAc(b1-3)Gal(b1-4)GlcNAc(b1-3)[Neu5Ac(a2-6)Gal(b1-4)GlcNAc(b1-3)Gal(b1-4)GlcNAc(b1-6)]GalNAc
In short: as §1

[10] = biological target: Neu5Ac(a2-6)Gal(b1-4)GlcNAc(b1-3)Gal(b1-4)GlcNAc(b1-6)[Gal(b1-3)]GalNAc
In short: as §1

[11] = biological target: Neu5Ac(a2-6)Gal(b1-4)GlcNAc(b1-3)Gal(b1-4)[Fuc(a1-3)]GlcNAc(b1-3)Gal(b1-4)[Fuc(a1-3)]GlcNAc
In short: as §1

[12] = biological target: Neu5Ac(a2-6)Gal(b1-4)GlcNAc(b1-3)GalNAc
In short: as §1

[13] = biological target: Neu5Ac(a2-6)Gal(b1-4)GlcNAc(b1-3)[Neu5Ac(a2-6)Gal(b1-4)GlcNAc(b1-6)]GalNAc
In short: as §1

[14] = biological target: Neu5Ac(a2-6)Gal(b1-4)GlcNAc(b1-6)GalNAc
In short: as §1

[15] = biological target: Neu5Ac(a2-6)Gal(b1-4)GlcNAc(b1-6)[Gal(b1-3)GlcNAc(b1-3)]Gal(b1-4)Glc
In short: as §1

[16] = biological target: Neu5Ac(a2-6)Gal(b1-4)GlcNAc(b1-6)[Gal(b1-3)]GalNAc
In short: as §1

[17] = biological target: Neu5Ac(a2-6)Gal(b1-4)GlcNAc6S
In short: as §1

Neu5Ac(a2-6)GalNAc = biological target: Neu5Ac(a2-6)GalNAc
In short: as §1

[18] = biological target: Neu5Ac(a2-6)GalNAc(b1-4)GlcNAc
In short: as §1

[19] = biological target: Neu5Ac(a2-6)GalNAc(b1-4)GlcNAc6S
In short: as §1

[20] = biological target: Neu5Ac(a2-6)GlcNAc(b1-4)GlcNAc
In short: as §1

[21] = biological target: Neu5Ac(a2-6)GlcNAc(b1-4)GlcNAc(b1-4)GlcNAc
In short: as §1

Neu5Ac(a2-8)Neu5Ac = biological target: Neu5Ac(a2-8)Neu5Ac
In short: as §1

[22] = biological target: Neu5Ac(a2-8)Neu5Ac(a2-3)Gal(b1-3)GalNAc(b1-4)[Neu5Ac(a2-3)]Gal(b1-4)Glc
In short: as §1

[23] = biological target: Neu5Ac(a2-8)Neu5Ac(a2-3)Gal(b1-3)GalNAc(b1-4)[Neu5Ac(a2-8)Neu5Ac(a2-3)]Gal(b1-4)Glc
In short: as §1

[24] = biological target: Neu5Ac(a2-8)Neu5Ac(a2-3)Gal(b1-4)Glc
In short: as §1

[25] = biological target: Neu5Ac(a2-8)Neu5Ac(a2-3)Gal(b1-4)GlcNAc
In short: as §1

[26] = biological target: Neu5Ac(a2-8)Neu5Ac(a2-3)[Gal(b1-3)GalNAc(b1-4)]Gal(b1-4)Glc
In short: as §1

[27] = biological target: Neu5Ac(a2-8)Neu5Ac(a2-3)[GalNAc(b1-4)]Gal(b1-4)Glc
In short: as §1

[28] = biological target: Neu5Ac(a2-8)Neu5Ac(a2-8)Neu5Ac
In short: as §1

[29] = biological target: Neu5Ac(a2-8)Neu5Ac(a2-8)Neu5Ac(a2-3)Gal(b1-4)Glc
In short: as §1

[30] = biological target: Neu5Ac(a2-8)Neu5Ac(a2-8)Neu5Ac(a2-3)[Gal(b1-3)GalNAc(b1-4)]Gal(b1-4)Glc
In short: as §1

[31] = biological target: Neu5Ac(a2-8)Neu5Ac(a2-8)Neu5Ac(a2-3)[GalNAc(b1-4)]Gal(b1-4)Glc
In short: as §1

[32] = biological target: Neu5Ac(a2-8)Neu5Ac(a2-8)Neu5Ac(a2-8)Neu5Ac(a2-3)[GalNAc(b1-4)]Gal(b1-4)Glc
In short: as §1

[33] = biological target: Neu5Ac(a2-8)Neu5Gc(a2-3)Gal(b1-4)GlcNAc
In short: as §1

Neu5Ac(b1-6)GalNAc = biological target: Neu5Ac(b1-6)GalNAc
In short: as §1

[34] = biological target: Neu5Ac(b2-6)Gal(b1-4)GlcNAc
In short: as §1

Neu5Ac(b2-6)GalNAc = biological target: Neu5Ac(b2-6)GalNAc
In short: as §1

B1: AMA (Arum maculatun) (protein)
chain: MAKLLLLLLLPAIVGLAVPRSAAAVGSNYMLSGETLNTDGRLTNGELTLIMQVDCNLVLYHGGWQSNTANNGRDCKLTLTDFGELVIKSGTGSTVWSSGSKQSMKGNYAAVVHPEGRLVIYGPSVFKINPSGAGLNGLPLRNIPLTNNMLFSGQVLYGDGTLSARNHKLVMQGDCNMVLYGGKYGWQSNTHGNGKYCFAMLTHKGELVIRDDDFKSVWSSKSSSKQGDYVFILQDDSLAIIYGPAVFSTGSKKMISMVTN
For B1, which “glycan array binding signal (z-score)” value [1] is on record?
Its value is -0.216.

And the “glycan array binding signal (z-score)” value [2]?
Its value is -0.214.

And the “glycan array binding signal (z-score)” value [3]?
The value was -0.224.

What about the “glycan array binding signal (z-score)” value [4] of the same binder?
Its value is -0.218.

And the “glycan array binding signal (z-score)” value [5]?
The value was -0.154.

And the “glycan array binding signal (z-score)” value [6]?
Its value is -0.221.

What about the “glycan array binding signal (z-score)” value [7] of the same binder?
The value was -0.029.

And the “glycan array binding signal (z-score)” value [8]?
Its value is -0.212.

And the “glycan array binding signal (z-score)” value [9]?
The value was -0.106.

And the “glycan array binding signal (z-score)” value [10]?
The value was -0.182.

And the “glycan array binding signal (z-score)” value [11]?
Its value is -0.205.

And the “glycan array binding signal (z-score)” value [12]?
Its value is -0.22.

And the “glycan array binding signal (z-score)” value [13]?
The value was -0.204.

What about the “glycan array binding signal (z-score)” value [14] of the same binder?
The value was -0.214.

And the “glycan array binding signal (z-score)” value [15]?
Its value is -0.216.

And the “glycan array binding signal (z-score)” value [16]?
The value was -0.205.

And the “glycan array binding signal (z-score)” value [17]?
The value was -0.206.

What about the “glycan array binding signal (z-score)” value (Neu5Ac(a2-6)GalNAc) of the same binder?
Its value is -0.224.

What about the “glycan array binding signal (z-score)” value [18] of the same binder?
Its value is -0.217.

What about the “glycan array binding signal (z-score)” value [19] of the same binder?
The value was -0.223.

What about the “glycan array binding signal (z-score)” value [20] of the same binder?
The value was -0.217.

What about the “glycan array binding signal (z-score)” value [21] of the same binder?
The value was -0.209.

And the “glycan array binding signal (z-score)” value (Neu5Ac(a2-8)Neu5Ac)?
The value was -0.214.

What about the “glycan array binding signal (z-score)” value [22] of the same binder?
Its value is -0.205.

And the “glycan array binding signal (z-score)” value [23]?
Its value is -0.218.

What about the “glycan array binding signal (z-score)” value [24] of the same binder?
Its value is -0.226.

What about the “glycan array binding signal (z-score)” value [25] of the same binder?
The value was -0.216.

And the “glycan array binding signal (z-score)” value [26]?
The value was -0.212.

What about the “glycan array binding signal (z-score)” value [27] of the same binder?
Its value is -0.218.

What about the “glycan array binding signal (z-score)” value [28] of the same binder?
Its value is -0.218.

What about the “glycan array binding signal (z-score)” value [29] of the same binder?
The value was -0.215.

What about the “glycan array binding signal (z-score)” value [30] of the same binder?
Its value is -0.204.

And the “glycan array binding signal (z-score)” value [31]?
The value was -0.203.

And the “glycan array binding signal (z-score)” value [32]?
Its value is -0.214.

What about the “glycan array binding signal (z-score)” value [33] of the same binder?
Its value is -0.217.

What about the “glycan array binding signal (z-score)” value (Neu5Ac(b1-6)GalNAc) of the same binder?
Its value is -0.26.

And the “glycan array binding signal (z-score)” value [34]?
Its value is -0.228.

And the “glycan array binding signal (z-score)” value (Neu5Ac(b2-6)GalNAc)?
The value was -0.214.

— the supplement of paper PMC8728848
